# Assay results from PubChem BioAssay AID743279 (National Center for Advancing Translational Sciences (NCATS), 2014).
# Screen size: about 360,000 compounds; about 17,000 (4.7%) were called active. Inconclusive results, whose numbers are uncertain, are shown with a selection of clear calls. Rule as the data show it: active = activity change below about -50%; inconclusive = mostly about -30% to -49%; inactive = weaker than that.
# Assay: qHTS for Inhibitors of Inflammasome Signaling: IL-1-beta AlphaLISA Primary Screen
# Settings: THP-1 LPS/ATP IL-1B secretion, 16 h; at 57.5 µM, hits give low values
# How it was run: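 Secreted IL-1B measured by AlphaLISA bead assay after 16 h compound exposure of THP-1 cells; compounds (final up to 57.5 uM) added 1 h before LPS (250 ng/mL) and ATP (1.25 mM) stimulation; lower signal means less secretion.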
# % is scaled to controls: 0 for no effect and ±100 for the full control effect.
row,Compound,activity change
1,Cn1cccc1/C=N/N1CCN(Cc2ccccc2)CC1,inactive: -16.2%
2,O=C(Cc1c(F)cccc1Cl)Nc1cc(S(=O)(=O)N2CCOCC2)ccc1N1CCCC1,inconclusive: -38.2%
3,C/C(=N\NC(=O)c1c(Cl)c(C)nn1C)c1cccc(NC(=O)C2CCCC2)c1,inconclusive: -35.6%
4,Clc1cc(Br)ccc1OCCCNCc1ccccc1,active: -101%
5,CCCCc1cc(=O)oc2cc(C)cc(OCC(=O)NCCN3CCOCC3)c12,inconclusive: -33.7%
6,COc1ccc(NC(=O)C[C@H]2C(=O)N(Cc3ccccc3)C[C@@H]2Cc2ccccc2)cc1,inconclusive: -37.3%
7,Cc1ccc(-c2cc(C(=O)N(C)CC(=O)Nc3ccccc3Br)c3ccccc3n2)o1,inconclusive: -48.7%
8,O=c1oc2c(O)c(O)cc3c(=O)oc4c(O)c(O)cc1c4c23,active: -51.1%
9,O=C(c1ccccc1NS(=O)(=O)c1ccc([N+](=O)[O-])cc1[N+](=O)[O-])N1O[C@@H]2C=C[C@H]1C2,active: -72.4%
10,S=c1[nH]nc(-c2ccc(Cl)cc2)n1/N=C/C=C/c1ccco1,inactive: 12.3%
11,COC(=O)C1=C(N)Oc2cc(C)n(CC3CCCO3)c(=O)c2C1c1ccc(Cl)c(Cl)c1 (stereo not drawn),inconclusive: -47.7%
12,CCOc1cc(/C=N/NC(=O)C(C)Sc2ccccc2)ccc1O (stereo not drawn),inactive: 0%
13,O=C(NNC(=O)c1cccs1)c1ccc(Cl)c([N+](=O)[O-])c1,inconclusive: -42.8%
14,COc1ccc(NC(=O)COc2cccc3c2CCNC3=O)cc1,inactive: 1.21%
15,CN1c2ccccc2C(C)(C)C12C=Nc1c(ccc3ccccc13)O2 (stereo not drawn),active: -57.9%
16,COc1cccc(C2Nc3ccccc3C(=O)N2Cc2ccccc2)c1 (stereo not drawn),inconclusive: -41.8%
17,CCc1ccc(S(=O)(=O)N/N=C\c2cn(CC(N)=O)c3ccccc23)cc1,inactive
18,CCCC(=O)Nc1ccc(NC(=S)NC(=O)c2ccccc2[N+](=O)[O-])cc1,inactive: 3.77%
19,COc1ccccc1NS(=O)(=O)c1ccc(C)c(NC(=O)c2ccc(S(=O)(=O)N3CCCCCC3)cc2)c1,inactive: -3.36%
20,Cc1onc(-c2ccccc2Cl)c1C(=O)Nc1ccccc1C(=O)NC(C)C,inconclusive: -48.7%
21,CC(=O)c1ccccc1OCCCCN1CCCCC1,inactive: 4.29%
22,Cc1onc(-c2c(Cl)cccc2Cl)c1C(=O)N1C=CC(C(F)(F)F)=NCC1,inactive: 18.9%
23,CC(C)C[C@H]1CNC(=O)C(=O)N1C[C@@H]1CCCN1C[C@H](Cc1ccccc1)N1C[C@H](CC(C)C)N(CCc2ccccc2)C(=O)C1=O,inconclusive: -36.2%
